86 molecules from ChEMBL document CHEMBL1201862, “PubChem BioAssay data set” (2004) can be followed below.

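Five concentrations, 48 hours, 96-well plates. The concentration for 50% growth inhibition is given as GI50.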 The source made the active and inactive calls. Rule as the data show it: active = GI50 up to about 1.1 µM and inactive = higher.

The assay concerns NCI-H322M. Nature of the assay: NCI-60 cell line screen, 48 h.
For the molecule `CSc1ccc(NC(=O)Nc2cc(C)ccn2)cc1`, the GI50 was inactive: > 100 µM. Regarding `Oc1ncc(Cl)c(O)n1`, the GI50 is inactive: > 100 µM. The figure for `COC(=O)c1onc(-c2c(OC)cc(OC)cc2OC)c1C(=O)OC` is inactive: > 100 µM. `CN(C)c1ccc(C=c2c3ccccc3n3c2cc(-c2ccc(Cl)cc2)[n+]3C)cc1`: the GI50 was active: 0.465 µM. On to `O=C(O)c1ccccc1-c1ccccc1C(=O)c1ccccc1`, for which the GI50 is inactive: > 100 µM. On to `COC(=O)c1c(C)c2c(c(C)c1O)OC(=O)c1c(C)cc(O)c(C=O)c1O2`, for which the GI50 was inactive: > 100 µM. The figure for `C(=N\c1cnc2ccccc2c1)/c1ccc2ccccc2n1` is inactive: > 100 µM; for `CC(C)(C)[Si](C)(C)OCc1cccc(OCCOc2cccc(CO[Si](C)(C)C(C)(C)C)c2[N+](=O)[O-])c1[N+](=O)[O-]` it is inactive: > 100 µM. Take `C/C=C/C(=O)[C@@H](O)C(C)C`: the GI50 was inactive: > 100 µM.

On to `CCOC(=O)/C(=N/Nc1ccccc1)N1C(=S)N(C)N=C(C)C=C1S`, for which the GI50 is inactive: > 100 µM. Take `COc1ccc(/C(Cl)=C(\C=O)c2ccc(F)cc2)cc1`: the GI50 was inactive: 15.5 µM.

Take `CCn1c2ccccc2c2c(-c3ccccc3)cc3c(c21)C(=O)N(c1ccccc1)C3=O`: the GI50 is inactive: > 100 µM. The value for `NCCCc1ccc2oc3ccccc3c2c1` was inactive: 11.5 µM; that for `Oc1c2cc(Br)cc1CCc1cc(Br)cc(c1O)CC2` was inactive: 19.2 µM; that for `OC(CN1CCCCC1)c1ccc(/C=C/c2ccc(Cl)cc2)cc1` (stereo unspecified) was inactive: > 100 µM. `O=S1(=O)c2ccccc2NC(=S)N1c1ccccc1`: the GI50 was inactive: > 8.75 µM.

`O=C(c1ccccc1)N1C(=S)N(c2ccccn2)C(=N/c2ccccc2)/C1=N\c1ccccc1`: the GI50 was inactive: 14.8 µM. On to `OC12CCCCCC1(N1CCOCC1)c1ccccc12` (stereo unspecified), for which the GI50 is inactive: > 100 µM. The value for `Cc1ccc(S(=O)(=O)N2c3ccccc3[C@H]3CCc4c([nH]c5ccccc45)[C@H]32)cc1` was inactive: > 100 µM.

As for `COC(c1cccc(C(O)(C(F)(F)F)C(F)(F)F)c1)(C(F)(F)F)C(F)(F)F`, the GI50 was inactive: 20.7 µM. As for `N=C1OC(CN2CCN(c3ccccc3)CC2)CN1C(=S)Nc1ccccc1` (stereo unspecified), the GI50 was inactive: > 100 µM. The figure for `CC1(C)CCc2cc3c(cc2O1)OC(C)(C)CC3=O` is inactive: > 100 µM; for `C=C1CCCC(C)(C)C1CCC1(C)CCC(C(C)C(=O)OC)OO1` (stereo unspecified) it is inactive: 8.59 µM.

Regarding `Cc1nc2ccc(Br)cc2c(=O)n1-c1nnc(C(C)(C)C)s1`, the GI50 is inactive: > 10 µM. The value for `COc1ccc(OC)c2c1-c1nnnn1CCC2(C)C` was inactive: > 100 µM. The value for `CCC(=O)CC(=O)CCC(=O)Nc1cc(C)ccc1C` was inactive: > 100 µM; that for `CC(=O)Oc1ccn2nc(C)c(Br)c2c1Br` was inactive: > 68.1 µM.

With `NC(Cc1ccccc1)C(=O)OCN1C(=O)C2C3C=CC(C2C1=O)C1C2C(=O)N(COC(=O)C(N)Cc4ccccc4)C(=O)C2C31` (stereo unspecified), the GI50 was inactive: 77.1 µM.

`S=C1N(c2ccc(Cl)cc2)C2=C(/N=N/c3ccccc3)C(=Nc3ccccc3S2)N1c1ccccn1`: the GI50 was inactive: 11.1 µM. The value for `COC(=O)c1cc2c(c(C(=O)OC)c1)CCC2` was inactive: > 100 µM; that for `CCOC(NC(=O)CC)(C(F)(F)F)C(F)(F)F` was inactive: > 100 µM. The figure for `Cc1cc2oc(C)c(S(=O)(=O)NC(=O)Nc3ccc(Cl)cc3)c(=O)c2c(=O)o1` is inactive: > 100 µM. For `CC1(C)CC(=O)C(CC2C(=O)c3ccccc3C2=O)C(=O)C1`, the GI50 is inactive: > 100 µM.

Take `O=S(=O)(O)c1ccc(O)c2ncc(Cl)cc12`: the GI50 is inactive: > 100 µM. The value for `CN(CCNC(=O)c1c[nH]c2c1Cc1ccccc1-2)CCNC(=O)c1c[nH]c2c1Cc1ccccc1-2` was inactive: 47.2 µM; that for `CO[C@@H](C(=O)OC1C=CC2(CC1)C(=O)N(C)c1ccccc12)c1ccccc1` (stereo partly specified) was inactive: > 100 µM.

On to `C/C=C\C(CC(=O)NCC(=O)c1c[nH]c2ccccc12)CC(=O)OC` (stereo unspecified), for which the GI50 is inactive: > 100 µM. Take `O=C(CCCC(=O)Nc1ccc(Cl)cc1Cl)CC(=O)c1ccc2ccccc2c1`: the GI50 was inactive: > 100 µM. For the molecule `O=C1C(c2ccc(Br)cc2)=[N+]([O-])c2ccccc21`, the GI50 is inactive: 19.4 µM. The value for `COc1cc2c(cc1O)CCN[C@@]21CS[C@H]2c3c(OC(C)=O)c(C)c4c(c3C(COC1=O)N1C2C2NC(Cc3cc(C)c(OC)c(O)c32)[C@@H]1C#N)OCO4` (stereo partly specified) was active: < 0.01 µM; that for `Cc1cnccc1/N=N/c1ccc(N(C)C)cc1` was inactive: 31.8 µM; that for `O=C1OC2CC=CC1C2` (stereo unspecified) was inactive: > 100 µM. The value for `Cc1ccc(NC(=O)C2C(=O)C(=O)N(c3ccc(C)cc3)C2=O)cc1` (stereo unspecified) was inactive: > 100 µM. Consider `O=c1cc(NNc2ccccc2)[nH]c(=O)[nH]1`, for which the GI50 is inactive: 23.6 µM.

For `COc1cc(CC2c3cc(OC)c(OC)cc3CCN2C)c(C(=O)O)cc1OC` (stereo unspecified), the GI50 is inactive: > 100 µM.

As for `c1ccc2c(c1)c(N1CCCCC1)cc1nc3c(cc(N4CCCCC4)c4ccccc43)nc12`, the GI50 was inactive: > 100 µM. The value for `COCC(=O)OC1CCn2c1nc1c2C(=O)C(C)=C(NC(C)=O)C1=N` (stereo unspecified) was inactive: 15.9 µM.

As to `Cc1ccc(Nc2nc3c(=O)n(C)c(=O)n(C)c3nc2Nc2ccc(C)cc2)cc1`, the GI50 is inactive: 20.2 µM. As for `O=C1N(c2ccccc2)N=C2c3ccncc3C3=NN(c4ccccc4)C(=O)C123` (stereo unspecified), the GI50 was inactive: > 100 µM. In the case of `C=C(C)C[C@H](Sc1nc2ccccc2s1)[C@H](C)O`, the GI50 was inactive: 57.8 µM. Regarding `CC(=O)Nc1cccc(N2C(=O)/C(=C\c3cccc(Oc4ccccc4)c3)SC2c2ccccc2)c1` (stereo unspecified), the GI50 was inactive: > 100 µM. Turning to `O=C(NNC(=O)c1ccccc1O)c1ccc(O)cc1`, the GI50 is inactive: 43.6 µM. The figure for `c1ccc(-n2cnnc2-c2nsc3ccccc23)cc1` is inactive: > 100 µM. The value for `CCOC(=O)C1C=C1C(C)(C)O` (stereo unspecified) was inactive: > 10 µM; that for `NC(=O)c1ncn2c(=O)n(CCl)nnc12` was inactive: > 100 µM. Take `O=C(O)C12CC3CC(CC(F)(C3)C1)C2`: the GI50 was inactive: > 100 µM.

As to `CC1(c2nc3ccccc3[nH]2)CCC(C#N)C(C)(C)O1` (stereo unspecified), the GI50 was inactive: > 100 µM. The value for `CCCC[N+](CCCC)(CCCC)CCCC.O=S(=O)([O-])ON=C1c2ccccc2-c2ccccc21` was inactive: > 100 µM; that for `O=C1CSC2=NC3=C(CSC/C3=C\c3ccccc3)C(c3ccccc3)N12` (stereo unspecified) was inactive: > 100 µM; that for `Cc1noc(C)c1CCCOC1COc2ccccc2OCCOCCOc2ccccc2OC1` was inactive: > 100 µM.

With `NN/C(Cc1ccccc1)=N/NC(N)=S`, the GI50 was inactive: > 100 µM. Consider `O=[N+]([O-])c1ccc(C2=NN(c3ccccc3)C[N+](c3ccc(Br)cc3)=N2)cc1`, for which the GI50 is inactive: > 100 µM. Regarding `O=C(CC(C(=O)c1cccs1)c1ccccc1)c1ccccc1O` (stereo unspecified), the GI50 is inactive: 9.77 µM. Take `CC1(C(=O)Nc2ccc3ccccc3c2)CC2(C)CC(C)(C1)C(O)NC2=O` (stereo unspecified): the GI50 is inactive: > 100 µM. For `COc1ccc(NC=O)c(C(O)CCNC(C)=O)c1` (stereo unspecified), the GI50 was inactive: > 100 µM. As to `COc1cc2c(cc1O)CC[C@@H]1C2CC[C@@]2(C)C1CC[C@@H]2O` (stereo partly specified), the GI50 was inactive: 4.83 µM. The value for `COc1ccc(/C(CCl)=C(\Nc2ccccc2)c2ccc(OC)c(OC)c2)cc1OC` was inactive: > 100 µM; that for `CC(=O)OC(CCC1(C)OC1COc1ccc(CCNC(=O)C=C(C)C)cc1)C(C)(C)OC(C)=O` (stereo unspecified) was inactive: > 100 µM. The figure for `COCO[C@@H]1C[C@H]2C(=O)N(COC)c3ccccc3C(=O)N2C1` is inactive: > 100 µM; for `CC1=C(Cl)C=CP(=O)(OC(C)C)C1` (stereo unspecified) it is inactive: > 100 µM.

On to `O=c1ccc(=O)c2c(=O)c3ccccc3c(=O)c1=2`, for which the GI50 was inactive: 85.9 µM. The value for `C#CCC(N)(CO)C(=O)O` (stereo unspecified) was inactive: > 100 µM. In the case of `O=C(c1ccccc1)n1cc(/C=C/[N+](=O)[O-])c2ccccc21`, the GI50 is inactive: 63.8 µM. As for `CSc1nc(O)c2cn(Cc3ccccc3)nc2n1`, the GI50 is inactive: > 66.4 µM.

In the case of `CC(=O)O[C@@H]1C[C@@]2(C)[C@@H]3CC=C4[C@@H](C[C@H](O)C(=O)C4(C)C)[C@]3(C)C(=O)C[C@]2(C)[C@H]1[C@@](C)(O)C(=O)/C=C/C(C)(C)OC(C)=O`, the GI50 was inactive: 10.6 µM.

Take `O=C(Nc1ccc(Cl)cc1)c1cc(S(=O)(=O)Nc2nnc3c(Cl)cc(C(F)(F)F)cn23)c(S)cc1Cl`: the GI50 is inactive: 47.6 µM.

Regarding `CSc1cc(Cl)c(C)cc1S(=O)(=O)NC(=O)NNc1ccc(F)cc1`, the GI50 was inactive: > 100 µM. The value for `O=[N+]([O-])C(/C(Cl)=C(\Cl)Br)=C(/Cl)SCc1ccccc1` was inactive: 16 µM. Consider `O=C(Nc1cccc(O)c1)C(=O)C1C(=O)NC(=S)NC1=O`, for which the GI50 was inactive: > 100 µM. Consider `CC1(C)C=C(/C=N/Nc2ccccc2)C(C#N)=C(O)C1(C#N)C#N`, for which the GI50 was inactive: > 100 µM.

As for `O=C(O)C12CCCCC1CCCC2` (stereo unspecified), the GI50 is inactive: > 100 µM. The figure for `COC1O[C@H]2CCN(C(=O)OCc3ccccc3)[C@H]2[C@H]1OCc1ccccc1` (stereo partly specified) is inactive: > 100 µM; for `CC1=NN(C(=O)c2ccccc2O)C(=O)/C1=C/c1cccc(O)c1` it is inactive: 3.65 µM.

With `Cc1ccc(C2=[N+]([O-])c3ccccc3C2=O)cc1`, the GI50 is inactive: > 84.9 µM. With `Cc1cc2cc3c(cc2c(-c2ccc(N)cc2)n1)OCO3`, the GI50 was inactive: 54.6 µM. For `COc1cc(CNc2ccc(C)cc2)cc(OC)c1OC`, the GI50 was active: 0.507 µM.
